Assay results reported in the supplement of paper PMC10126150.
Values marked as one replicate rest on one cluster of the flow cell; about a third of the high ones do not repeat.

System: ATP
Assay: switch fluorescence ratio, 500 uM ATP over buffer (Cy3 cluster intensity, sum of 5 cycles each) (fold (ratio)); higher = stronger signal-on switching upon ATP binding; sequences stand for … in TCGTCGGCAGCGTCAGATGTGTATAAGAGACAGTTTTTTTTTTTTTTTTTTTTTTTTT…TC
Conditions: aptamer strand: ATP DNA aptamer (quencher-CACCTGGGGGAGTATTGCGGAGGAAGG + anchor), 100 nM annealed; ATP concentration: 500 uM; one replicate
Outline: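 For every switch-domain sequence, the fluorescence ratio is the mean of per-cluster values, each being summed target-cycle Cy3 intensity over summed buffer-cycle Cy3 intensity. Clusters outside 100-1000 RFU were excluded. On a modified Illumina MiSeq flow-cell, the Cy3-labelled switching-strand clusters were annealed to 100 nM quencher-labelled ATP aptamer, imaged in selection buffer and then after 15 min with 500 uM ATP at 22 °C. Five such cycles were run, with NaOH stripping and re-annealing between them.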
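Note: ATP exposure 15 min at 22 °C before imaging.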

Row | Sequence | switch fluorescence ratio
1 | GTATATGGTT | 0.973
2 | TGAGAAGTAG | 0.971
3 | CGGAAGAGTG | 0.938
4 | GCTAGCATAT | 1.04
5 | TTATTGAGA | 0.996
6 | AAAGGTATAT | 0.974
7 | CTGGGCCAAA | 1.02
8 | ATTCAAACAT | 1.04
9 | TGCCGGGG | 0.969
10 | TGGCGTAACA | 1
11 | TGGACAGCCT | 1.03
12 | GATTCAAATA | 1.02
13 | AGTTGGTATG | 0.948
14 | TTGCGGTGTC | 1.05
15 | TCGGGGACGG | 0.955
16 | GGAGGAACGT | 1.37
17 | TCGGTCGAGA | 1.02
18 | CTCTGGGACG | 0.942
19 | GTTGATTCGC | 1
20 | CGGGCGGCGT | 1.07
21 | ATTGCCGAAT | 0.981
22 | CTAACCCCAG | 1.31
23 | CTGTTAACGA | 0.999
24 | AGTCTGTTGA | 1.02
25 | CAGGAATGAT | 0.977
26 | TCCACGATCC | 1.28

Row | Sequence | switch fluorescence ratio
27 | TAACGCGACC | 1.58
28 | CGTGATCAAA | 1
29 | GGGGCCCTCT | 0.966
30 | CGGGTGTCAA | 1.03
31 | AAGCTCTCGC | 0.996
32 | TTAGGATGGG | 0.98
33 | CGTGATACAC | 1.27
34 | ACCAGTTGCA | 1.03
35 | CTTAGAGAA | 1.01
36 | AGGGCGTTC | 1
37 | ACCGTCATAG | 1.26
38 | CGAGACAATT | 1.27
39 | ATAGACGTGC | 1.02
40 | TGGGGGTACC | 0.978
41 | TCACGGATT | 0.993
42 | AGTGGACGTT | 1.01
43 | TAGGTATTCC | 0.96
44 | AATGTGGACA | 1.01
45 | TCCTCTACAG | 1.55
46 | ACCTGCACAG | 1.23
47 | TTTCTACCTA | 1.03
48 | ACGATGCCTT | 1.04
49 | TGGGCTTTAA | 0.945
50 | TTCTCTTGTG | 0.976
51 | CAACTGCGCC | 1.29
52 | TGGGTACAA | 1.05

Row | Sequence | switch fluorescence ratio
53 | TGTTACCCCT | 0.999
54 | GCAAGGTGTT | 1.32
55 | ACAGCCCCAT | 1
56 | CCTTAAATGG | 1.12
57 | TGGTGTA | 1.03
58 | CAAGGGCGCG | 0.951
59 | ATGGGATATA | 0.933
60 | GGGCGTCCGT | 1.04
61 | ATAGCGAGG | 1.17
62 | TAGGAGCGGG | 1.14
63 | AATGTGATAT | 0.953
64 | TGAGTGCCGA | 1.03
65 | TTACATTGGA | 1.01
66 | CGGAAGAGCG | 0.981
67 | CTGATAAGGG | 1.01
68 | GTCGACATTG | 1.01
69 | AACTTTCTG | 0.984
70 | TTGGCGCCCG | 1
71 | GATCACATCC | 0.975
72 | AACTGCGCAT | 1.63
73 | CTGTAGCTTG | 1.09
74 | AGGGAATGGA | 1.03
75 | TTTTAGT | 1.01
76 | ACATACACTG | 1.27
77 | TCCGGGTCGC | 1.04
78 | GTTCGAATGT | 0.961

Row | Sequence | switch fluorescence ratio
79 | AATTAGGAAA | 1
80 | GAGGTTAAGG | 0.962
81 | GGGATATTG | 0.957
82 | AATCAGGTTT | 1.04
83 | GCTGATACTG | 1.06
84 | ATGCCAAGCG | 1.02
85 | TGTGTGAATT | 1.71
86 | ATCTTAGGCA | 0.958
87 | TCAGTCGTG | 0.974
88 | ACATATCGTT | 1.03
89 | TCCATAAATC | 0.982
90 | CCATACGCTA | 2.8
91 | TCGTACCGTG | 1.02
92 | CAGGTTGTAA | 0.975
93 | GGCGTATCTG | 1.01
94 | TGGATCCGCA | 4.2
95 | GGCTTTTACC | 0.988
96 | ACAGGGGCTT | 1.12
97 | CGATACCCTA | 0.989
98 | AGAGTCTCGT | 0.983
99 | TTAATACTAG | 1.17
100 | TGGGACAAAG | 0.998
101 | TACTCAAACG | 0.962
102 | TGCAGGGTGA | 1.07
103 | AGGGTGTCGG | 1
104 | CCTGGGTCT | 1.02

Row | Sequence | switch fluorescence ratio
105 | GGGGGCTTCC | 1.49
106 | GTGCGGCGGA | 1.02
107 | TTAGCTCGAG | 1.04
108 | AAGGACACTG | 1.09
109 | TGAGTAAAG | 1.05
110 | AATGTTTTCG | 0.989
111 | TTAAGAACCC | 0.989
112 | AGTATGACCT | 1
113 | CGGTCGCGTT | 0.96
114 | AGACAGATGG | 1.1
115 | TAGCAGCACT | 1.17
116 | ACGCTGCGTA | 1.03
117 | GACTCAACGA | 1.13
118 | GAAAAGTTTG | 1.06
119 | CGCTACGTAA | 2.09
120 | TCCTCTGGGG | 1.17
121 | AGAAATTGCG | 0.961
122 | AGATTATGG | 0.973
123 | GTGAACCTTG | 1.03
124 | TTTATTACGT | 0.982
125 | CCTGGGCTCC | 1.22
126 | ACGGGAGTCT | 0.952
127 | GCATTGTGGT | 1.02
128 | ACCAGCATGG | 0.968
129 | TCGGAAGTGG | 1.07
130 | TTAAAAGCG | 1.04

Row | Sequence | switch fluorescence ratio
131 | AGCAGTCAAT | 1.07
132 | TGGATGCCCG | 1.02
133 | TTCCCTCTAC | 1.13
134 | CGACAAACTA | 1.12
135 | CTCAATGTTC | 1.03
136 | TCGAGGGT | 0.993
137 | TCGTCTTTTA | 0.999
138 | CGTTCTACAC | 1.04
139 | GTTCATCTCG | 1.02
140 | TAAGAGCTCA | 0.991
141 | AATAAGATTC | 0.964
142 | GTGCAGTTTT | 1.01
143 | AAACATGAGG | 1.04
144 | ACTAGAGTGT | 1.01
145 | ATACGCCCGG | 1.12
146 | TAGACCGCGC | 1.18
147 | ATCGTCGCTT | 0.996
148 | TAGAAACAAG | 1.02
149 | CTATTGGGGC | 1.03
150 | GCCCGAGTCT | 0.983
151 | AATGTTTACC | 1.01
152 | CCTTAAGCTC | 3.03
153 | TCTGTCATCA | 1.01
154 | CCGTACGGCA | 1.09
155 | ATGGTTCTTG | 1.01
156 | TTGGCGTACC | 1.04

Row | Sequence | switch fluorescence ratio
157 | CCGGAATTGC | 5.45
158 | TCCAACGTCC | 1.17
159 | GACAGCAGTT | 1.14
160 | GCGTTGGTGG | 0.978
161 | GCAAATTATA | 0.999
162 | CAGTGCAGTC | 1.01
163 | AGAATCATCG | 0.964
164 | GCCCCTTGAT | 0.981
165 | CAATCGATGA | 0.969
166 | TAGGAGTGGA | 1.07
167 | CTCGTGGGTA | 1.02
168 | GTCCTGCTAG | 0.988
169 | TCGGAGAAC | 1.06
170 | GTAGGTTAGA | 1.05
171 | TGTGTCCGCC | 1.15
172 | AGGACAGGAA | 1.04
173 | GGCTGATATT | 0.985
174 | GAGATCGGGA | 1.01
175 | AATGTTTTTC | 0.959
176 | AGCGCATTGG | 1.11
177 | ATACTGCCCT | 1.27
178 | GCGGGATCTG | 0.976
179 | ACCACACGGA | 1.51
180 | GCCAAAACGC | 0.975
181 | GTGCCCGGCG | 1.05
182 | CGTTAATAAT | 0.985

Row | Sequence | switch fluorescence ratio
183 | AGAGGTAGTC | 1.05
184 | CAGTGAGTGA | 1.03
185 | GACACAGCTC | 1.25
186 | AGGGAAGCAC | 1.16
187 | AAATAAGGCA | 0.954
188 | GTTTAAATTG | 0.985
189 | TGTGGGTGCG | 1.01
190 | AGAGCCTAA | 1.05
191 | CCGTTTTACA | 1.13
192 | CTTCAATCCA | 0.987
193 | AATTTGAGTC | 1.02
194 | CAGGTAAATA | 0.992
195 | GAGACTGGAT | 1.03
196 | TTGCAGTGGC | 1.56
197 | CCGGAGAGAT | 3.85
198 | AGAGGTGGC | 1.1
199 | CGCTAGTTGA | 1.03
200 | AGCACCCTTT | 0.977
201 | TCGTTCAAGG | 1.01
